Here are results for nine variants from the supplement of paper PMC12217912.

Some of the results follow. The full chains were built here from the parent and the listed change. Inactive controls read about 0.05.

B1: TEV protease; numbered along this chain (parent)
chain: MGESLFKGPRDYNPISSSICHLTNESDGHTTSLYGIGFGPFIITNKHLFRRNNGTLVVQSLHGVFKVKDTTTLQQHLVDGRDMIIIRMPKDFPPFPQKLKFREPQREERICLVTTNFQTKSMSSMVSDTSCTFPSGDGIFWKHWIQTKDGQCGSPLVSTRDGFIVGIHSASNFTNTNNYFTSVPKNFMELLTNQEAQQWVSGWRLNADSVLWGGHKVFMVKPEEPFQPVKEATQL

Variants of B1 are the subject of the experiment. The experiment can be described thus: raw area under fraction-flipped curve 0-4 h after induction (AUC4h, not background-subtracted), DNA-recorder readout of cleavage of the substrate (dimensionless); higher = more cleavage of the substrate by the protease variant. The following applies: temperature: 34 °C; time window: 0-4 h after rhamnose induction. Here is the method: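 In vivo DNA recorder in E. coli TOP10(DE3) ΔrhaA at 34 °C. Each TEVp single-site mutant (parent TEVp 0) is paired with a single-site variant of the 7-mer TEVs (canonical ENLYFQ|S). The substrate sits between flexible linkers in a Bxb1-sfGFP-TEVs-SsrA fusion, so cleavage stabilises Bxb1 and speeds flipping of a recombination array, read by NGS. The value is the raw area under the fraction-flipped curve over 0-4 h after rhamnose induction (AUC4h), with ≥20 reads per time point. It is not background-subtracted; inactive controls average about 0.047.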
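Note: Bxb1 expression induced with 0.2% (w/v) L-rhamnose at OD600 near 0.5, cultures sampled hourly, flipped fraction per protease–substrate barcode pair counted by paired-end Illumina sequencing.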

Turning to MGESLFKGPRDYNPISSSICHLTNESDGHTTSLYGIGFGPFIITNKHLFRRNNGTLVVQSLHGVFKVKDTTPLQQHLVDGRDMIIIRMPKDFPPFPQKLKFREPQREERICLVTTNFQTKSMSSMVSDTSCTFPSGDGIFWKHWIQTKDGQCGSPLVSTRDGFIVGIHSASNFTNTNNYFTSVPKNFMELLTNQEAQQWVSGWRLNADSVLWGGHKVFMVKPEEPFQPVKEATQL [T72P], the “area with substrate ENAYFQS” value worked out at 0.0577, the “area with substrate ENCYFQS” value was found to be 0.0671, the “area with substrate ENDYFQS” value amounted to 0.0701 and the “area with substrate ENEYFQS” value was found to be 0.0571. Besides, the “area with substrate ENFYFQS” value was found to be 0.0582, the “area with substrate ENGYFQS” value came out at 0.0671, the “area with substrate ENHYFQS” value came to 0.0731 and the “area with substrate ENKYFQS” value worked out at 0.066. The “area with substrate ENMYFQS” value is 0.0709, the “area with substrate ENNYFQS” value was determined as 0.0599, the “area with substrate ENPYFQS” value is 0.0553 and the “area with substrate ENQYFQS” value is 0.0579. The “area with substrate ENSYFQS” value is 0.0765, the “area with substrate ENVYFQS” value worked out at 0.0512 and the “area with substrate ENYYFQS” value was 0.0684.
In the case of MGESLFKGPRDYNPISSSICHLTNESDGHTTSLYGIGFGPFIITNKHLFRRNNGTLVVQSLHGVFKVKDTTTLQQHLGDGRDMIIIRMPKDFPPFPQKLKFREPQREERICLVTTNFQTKSMSSMVSDTSCTFPSGDGIFWKHWIQTKDGQCGSPLVSTRDGFIVGIHSASNFTNTNNYFTSVPKNFMELLTNQEAQQWVSGWRLNADSVLWGGHKVFMVKPEEPFQPVKEATQL [V78G], the “area with substrate ENAYFQS” value turned out to be 0.049, the “area with substrate ENCYFQS” value was 0.0662, the “area with substrate ENDYFQS” value worked out at 0.0633 and the “area with substrate ENFYFQS” value amounted to 0.0566. The “area with substrate ENKYFQS” value is 0.0455, the “area with substrate ENNYFQS” value was 0.0688, the “area with substrate ENQYFQS” value turned out to be 0.0563 and the “area with substrate ENSYFQS” value was determined as 0.0548. Besides, the “area with substrate ENVYFQS” value came out at 0.0708.
As to MGESLFKGPRDYNPISSSICHLTNESDGHTTSLYGIGFGPFIITNKHLFRRNNGTLVVQSLHGVFKVKDTTTLQQHLADGRDMIIIRMPKDFPPFPQKLKFREPQREERICLVTTNFQTKSMSSMVSDTSCTFPSGDGIFWKHWIQTKDGQCGSPLVSTRDGFIVGIHSASNFTNTNNYFTSVPKNFMELLTNQEAQQWVSGWRLNADSVLWGGHKVFMVKPEEPFQPVKEATQL [V78A], the “area with substrate ENAYFQS” value is 0.0716, the “area with substrate ENCYFQS” value worked out at 0.057, the “area with substrate ENEYFQS” value was found to be 0.0628 and the “area with substrate ENFYFQS” value was 0.0526. In addition, the “area with substrate ENGYFQS” value came to 0.0459, the “area with substrate ENHYFQS” value is 0.0729, the “area with substrate ENIYFQS” value turned out to be 0.0687 and the “area with substrate ENMYFQS” value is 0.0629. Further, the “area with substrate ENNYFQS” value was 0.0638, the “area with substrate ENQYFQS” value was determined as 0.0424, the “area with substrate ENRYFQS” value is 0.0541 and the “area with substrate ENSYFQS” value was determined as 0.0573. Further, the “area with substrate ENTYFQS” value was determined as 0.0389, the “area with substrate ENVYFQS” value stood at 0.0584, the “area with substrate ENWYFQS” value came out at 0.0471 and the “area with substrate ENYYFQS” value came to 0.052.
As for MGESLFKGPRDYNPISSSICHLTNESDGHTTSLYGIGFGPFIITNKHLFRRNNGTLVVQSLHGVFKVKDTTTLQQHTVDGRDMIIIRMPKDFPPFPQKLKFREPQREERICLVTTNFQTKSMSSMVSDTSCTFPSGDGIFWKHWIQTKDGQCGSPLVSTRDGFIVGIHSASNFTNTNNYFTSVPKNFMELLTNQEAQQWVSGWRLNADSVLWGGHKVFMVKPEEPFQPVKEATQL [L77T], the “area with substrate ENAYFQS” value came out at 0.0602, the “area with substrate ENCYFQS” value is 0.053, the “area with substrate ENEYFQS” value is 0.0491 and the “area with substrate ENFYFQS” value stood at 0.0571. The “area with substrate ENHYFQS” value worked out at 0.0715, the “area with substrate ENKYFQS” value came to 0.0316, the “area with substrate ENQYFQS” value came to 0.0489 and the “area with substrate ENRYFQS” value came out at 0.0629. Moreover, the “area with substrate ENSYFQS” value was determined as 0.0997, the “area with substrate ENTYFQS” value is 0.0634, the “area with substrate ENVYFQS” value turned out to be 0.075 and the “area with substrate ENWYFQS” value amounted to 0.0619.
Consider MGESLFKGPRDYNPISSSICHLTNESDGHTTSLYGIGFGPFIITNKHLFRRNNGTLVVQSLHGVFKVKDTTTLQQELVDGRDMIIIRMPKDFPPFPQKLKFREPQREERICLVTTNFQTKSMSSMVSDTSCTFPSGDGIFWKHWIQTKDGQCGSPLVSTRDGFIVGIHSASNFTNTNNYFTSVPKNFMELLTNQEAQQWVSGWRLNADSVLWGGHKVFMVKPEEPFQPVKEATQL [H76E], for which the “area with substrate ENAYFQS” value came to 0.0605, the “area with substrate ENDYFQS” value amounted to 0.0535, the “area with substrate ENGYFQS” value came out at 0.059 and the “area with substrate ENHYFQS” value was determined as 0.0713. In addition, the “area with substrate ENMYFQS” value came to 0.0644, the “area with substrate ENNYFQS” value amounted to 0.057, the “area with substrate ENPYFQS” value came to 0.0667 and the “area with substrate ENQYFQS” value amounted to 0.0569. The “area with substrate ENSYFQS” value came to 0.0562, the “area with substrate ENVYFQS” value is 0.0594 and the “area with substrate ENYYFQS” value was found to be 0.0617.
As to MGESLFKGPRDYNPISSSICHLTNESDGHTTSLYGIGFGPFIITNKHLFRRNNGTLVVQSLHGVFKVKDTFTLQQHLVDGRDMIIIRMPKDFPPFPQKLKFREPQREERICLVTTNFQTKSMSSMVSDTSCTFPSGDGIFWKHWIQTKDGQCGSPLVSTRDGFIVGIHSASNFTNTNNYFTSVPKNFMELLTNQEAQQWVSGWRLNADSVLWGGHKVFMVKPEEPFQPVKEATQL [T71F], the “area with substrate ENAYFQS” value was determined as 0.0587, the “area with substrate ENCYFQS” value was determined as 0.0678, the “area with substrate ENDYFQS” value stood at 0.0647 and the “area with substrate ENEYFQS” value was determined as 0.0627. Further, the “area with substrate ENGYFQS” value came out at 0.0681, the “area with substrate ENHYFQS” value amounted to 0.0569, the “area with substrate ENIYFQS” value stood at 0.0606 and the “area with substrate ENKYFQS” value worked out at 0.0636. Further, the “area with substrate ENMYFQS” value is 0.0625, the “area with substrate ENNYFQS” value was determined as 0.0669, the “area with substrate ENQYFQS” value was 0.0549 and the “area with substrate ENRYFQS” value is 0.0693. Also, the “area with substrate ENSYFQS” value amounted to 0.0724, the “area with substrate ENTYFQS” value came to 0.057, the “area with substrate ENVYFQS” value worked out at 0.0689 and the “area with substrate ENYYFQS” value turned out to be 0.0569.
As to MGESLFKGPRDYNPISSSICHLTNESDGHTTSLYGIGFGPFIITNKHLFRRNNGTLVVQSLHGVFKVKDTTTGQQHLVDGRDMIIIRMPKDFPPFPQKLKFREPQREERICLVTTNFQTKSMSSMVSDTSCTFPSGDGIFWKHWIQTKDGQCGSPLVSTRDGFIVGIHSASNFTNTNNYFTSVPKNFMELLTNQEAQQWVSGWRLNADSVLWGGHKVFMVKPEEPFQPVKEATQL [L73G], the “area with substrate ENAYFQS” value turned out to be 0.0369, the “area with substrate ENCYFQS” value amounted to 0.0475, the “area with substrate ENDYFQS” value is 0.0604 and the “area with substrate ENFYFQS” value amounted to 0.0511. In addition, the “area with substrate ENKYFQS” value amounted to 0.0415, the “area with substrate ENNYFQS” value worked out at 0.0524, the “area with substrate ENQYFQS” value came out at 0.0602 and the “area with substrate ENRYFQS” value came out at 0.0459. For the same variant, the “area with substrate ENSYFQS” value amounted to 0.0501, the “area with substrate ENTYFQS” value was 0.0557, the “area with substrate ENVYFQS” value was 0.0524 and the “area with substrate ENWYFQS” value amounted to 0. The “area with substrate ENYYFQS” value came out at 0.0301.
As to MGESLFKGPRDYNPISSSICHLTNESDGHTTSLYGIGFGPFIITNKHLFRRNNGTLVVQSLHGVFKVKDTTTLDQHLVDGRDMIIIRMPKDFPPFPQKLKFREPQREERICLVTTNFQTKSMSSMVSDTSCTFPSGDGIFWKHWIQTKDGQCGSPLVSTRDGFIVGIHSASNFTNTNNYFTSVPKNFMELLTNQEAQQWVSGWRLNADSVLWGGHKVFMVKPEEPFQPVKEATQL [Q74D], the “area with substrate ENAYFQS” value worked out at 0.0674, the “area with substrate ENCYFQS” value was 0.0768, the “area with substrate ENDYFQS” value stood at 0.028 and the “area with substrate ENEYFQS” value stood at 0.0719. The “area with substrate ENFYFQS” value was found to be 0.0655, the “area with substrate ENGYFQS” value was 0.0648, the “area with substrate ENHYFQS” value was found to be 0.0659 and the “area with substrate ENIYFQS” value worked out at 0.0956. The “area with substrate ENKYFQS” value came to 0.0605, the “area with substrate ENNYFQS” value was found to be 0.0484, the “area with substrate ENPYFQS” value is 0.0627 and the “area with substrate ENQYFQS” value was 0.0644. Moreover, the “area with substrate ENRYFQS” value was found to be 0.0548, the “area with substrate ENSYFQS” value came to 0.067, the “area with substrate ENTYFQS” value worked out at 0.0583 and the “area with substrate ENVYFQS” value came out at 0.0632. For the same variant, the “area with substrate ENWYFQS” value worked out at 0.0629 and the “area with substrate ENYYFQS” value was 0.0441.
As to MGESLFKGPRDYNPISSSICHLTNESDGHTTSLYGIGFGPFIITNKHLFRRNNGTLVVQSLHGVFKVKDTTTLHQHLVDGRDMIIIRMPKDFPPFPQKLKFREPQREERICLVTTNFQTKSMSSMVSDTSCTFPSGDGIFWKHWIQTKDGQCGSPLVSTRDGFIVGIHSASNFTNTNNYFTSVPKNFMELLTNQEAQQWVSGWRLNADSVLWGGHKVFMVKPEEPFQPVKEATQL [Q74H], the “area with substrate ENAYFQS” value was determined as 0.0192, the “area with substrate ENDYFQS” value came out at 0.0564, the “area with substrate ENEYFQS” value came out at 0.0609 and the “area with substrate ENGYFQS” value was found to be 0.0575. Besides, the “area with substrate ENPYFQS” value was found to be 0.0886, the “area with substrate ENQYFQS” value was determined as 0.04 and the “area with substrate ENSYFQS” value was 0.0836.
